Among all 310,000 compounds or so, about 14,000 (4.5%) showed an effect of 50% or more. Effects have a minus sign here. Some of the results follow. Where a SMILES comes first, the peptide text is derived from it.
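Note: peak tail current of the secondary pulse compared with the same well before compound.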

The target of the assay is human ether-à-go-go-related gene (hERG) potassium channel (human, UniProt Q12809). The experiment in a line: primary screen, population patch clamp on CHO cells stably expressing hERG.
Sequence of human ether-à-go-go-related gene (hERG) potassium channel (Q12809 whole entry, looked up): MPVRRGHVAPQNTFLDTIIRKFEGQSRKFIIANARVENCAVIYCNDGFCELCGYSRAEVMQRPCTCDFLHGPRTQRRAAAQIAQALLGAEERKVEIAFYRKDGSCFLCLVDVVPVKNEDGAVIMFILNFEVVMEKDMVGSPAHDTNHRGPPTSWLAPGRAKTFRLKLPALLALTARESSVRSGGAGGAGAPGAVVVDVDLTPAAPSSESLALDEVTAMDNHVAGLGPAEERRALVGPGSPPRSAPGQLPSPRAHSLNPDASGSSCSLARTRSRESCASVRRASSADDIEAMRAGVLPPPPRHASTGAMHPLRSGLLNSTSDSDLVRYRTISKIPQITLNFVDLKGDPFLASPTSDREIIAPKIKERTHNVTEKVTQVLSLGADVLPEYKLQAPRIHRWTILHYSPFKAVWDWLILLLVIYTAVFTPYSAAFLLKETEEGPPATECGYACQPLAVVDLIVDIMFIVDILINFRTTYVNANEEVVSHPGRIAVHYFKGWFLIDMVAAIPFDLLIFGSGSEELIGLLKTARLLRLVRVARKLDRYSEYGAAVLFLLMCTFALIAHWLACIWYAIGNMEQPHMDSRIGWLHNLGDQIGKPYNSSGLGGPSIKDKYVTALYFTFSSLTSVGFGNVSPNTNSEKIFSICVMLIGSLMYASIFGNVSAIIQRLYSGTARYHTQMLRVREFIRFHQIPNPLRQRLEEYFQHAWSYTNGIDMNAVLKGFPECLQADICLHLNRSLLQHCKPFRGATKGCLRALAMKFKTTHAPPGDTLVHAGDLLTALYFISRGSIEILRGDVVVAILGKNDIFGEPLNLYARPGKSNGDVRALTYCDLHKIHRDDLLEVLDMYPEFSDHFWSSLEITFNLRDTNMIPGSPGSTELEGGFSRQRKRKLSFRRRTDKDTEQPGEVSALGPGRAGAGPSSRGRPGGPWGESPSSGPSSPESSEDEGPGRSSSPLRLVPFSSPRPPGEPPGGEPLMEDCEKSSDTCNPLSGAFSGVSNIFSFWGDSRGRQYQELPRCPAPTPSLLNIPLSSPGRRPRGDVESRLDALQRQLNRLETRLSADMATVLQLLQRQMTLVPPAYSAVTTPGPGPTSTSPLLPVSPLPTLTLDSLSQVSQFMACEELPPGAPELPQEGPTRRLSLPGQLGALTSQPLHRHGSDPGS
In the case of `Cc1ccc(C(=O)OCC(=O)N(CC(C)C)c2c(N)n(Cc3ccccc3)c(=O)[nH]c2=O)s1`, the “hERG current change (%, negative = inhibition) at 10uM” value worked out at 14.7%.

Turning to `Cc1nc(N)sc1C(=O)N/N=C/c1ccco1`, the “hERG current change (%, negative = inhibition) at 10uM” value is 10.7%.

Turning to `Cc1cc(C(C)(C)C)ccc1OCCOCCN1CCCC1`, the “hERG current change (%, negative = inhibition) at 10uM” value is -44.5%.

For `CCn1ccnc1CN(C)Cc1c(C(=O)N2C[C@@H](C)O[C@@H](C)C2)nc2ccc(Cl)cn12`, the “hERG current change (%, negative = inhibition) at 10uM” value was found to be 11.6%.

Turning to `COc1ccccc1NC(=O)NC(=O)c1ccccc1`, the “hERG current change (%, negative = inhibition) at 10uM” value stood at 18.5%.

Regarding `COC(=O)C(CC(C)C)NC(=O)C(N)Cc1ccccc1.Cl` (stereo not drawn) (H-Phe-Leu-OMe; configuration not given here), the “hERG current change (%, negative = inhibition) at 10uM” value is 8.83%.

With `O=C(Cc1ccc(Cl)cc1)NC1CC1`, the “hERG current change (%, negative = inhibition) at 10uM” value stood at 11%.

For the compound `CC(C)(C)C1CCc2[nH]c3ccccc3c(=O)c2C1` (stereo not shown), the “hERG current change (%, negative = inhibition) at 10uM” value is listed as -5.82%.

Take `CC(C)CN(C(=O)COC(=O)CCCc1c[nH]c2ccccc12)c1c(N)n(Cc2ccccc2)c(=O)[nH]c1=O`: the “hERG current change (%, negative = inhibition) at 10uM” value was found to be 17.2%.

Take `CN1CCCN(C(=O)COc2cccc(C(F)(F)F)c2)CC1`: the “hERG current change (%, negative = inhibition) at 10uM” value is -0.603%.

As to `COc1ccc(CCNS(=O)(=O)c2cc3c4c(c2)CC(=O)N4CCC3)cc1`, the “hERG current change (%, negative = inhibition) at 10uM” value is -34.8%.

Turning to `CCCCOc1ccc(C(=O)N2CCC(C)CC2)cc1`, the “hERG current change (%, negative = inhibition) at 10uM” value is -9.48%.

On to `COCCn1c(=NC(=O)CN2C(=O)CCC2=O)sc2cc(S(N)(=O)=O)ccc21`, for which the “hERG current change (%, negative = inhibition) at 10uM” value was -9.48%.

On to `COc1cccc(/C=C/C(=O)OCC(=O)c2c[nH]c3ccccc23)c1OC`, for which the “hERG current change (%, negative = inhibition) at 10uM” value is on record as 9.29%.

In the case of `CCN(CC)S(=O)(=O)c1cccc(NC(=O)COc2ncnc3sccc23)c1`, the “hERG current change (%, negative = inhibition) at 10uM” value is on record as -31.4%.

For the compound `Cc1cccc(NC(=O)N2C3CCCC2CC(NC(=O)C(C)(C)C)C3)c1` (stereo not shown), the “hERG current change (%, negative = inhibition) at 10uM” value was 1.47%.

With `COCCCNC(=O)Cn1cc(C(C)=O)c2ccccc21`, the “hERG current change (%, negative = inhibition) at 10uM” value is given as 17.7%.

Take `C=C(C)/C=N/NC(=S)Nc1ccc(S(=O)(=O)N2CCOCC2)cc1`: the “hERG current change (%, negative = inhibition) at 10uM” value was -13.4%.

On to `CCN(CCNC(=O)C1CCCN(S(=O)(=O)CC)C1)c1ccccc1` (stereo not shown), for which the “hERG current change (%, negative = inhibition) at 10uM” value is -5.46%.

Consider `Cn1c(=O)c(=O)n(C)c2cc(S(=O)(=O)Nc3ccc(OC(F)(F)F)cc3)ccc21`, for which the “hERG current change (%, negative = inhibition) at 10uM” value stood at 1.1%.

`CCCCC(=O)NC(=S)Nc1cccc(Cl)c1N1CCCCC1`: the “hERG current change (%, negative = inhibition) at 10uM” value was 3.72%.

In the case of `CCN(CC)C(=O)CSc1nc(N)c2c3c(sc2n1)CC(C)CC3` (stereo not shown), the “hERG current change (%, negative = inhibition) at 10uM” value is -20.9%.

As to `CSCc1cc(N2CCOCC2)nc(SCc2ccc(Cl)c(Cl)c2)n1`, the “hERG current change (%, negative = inhibition) at 10uM” value was determined as 6.78%.

For the compound `CCCc1nnc(SCC(=O)NC2CCCC2)n1CCOC`, the “hERG current change (%, negative = inhibition) at 10uM” value is 7.01%.

With `Cc1cc(-c2nc(C)c(-c3nnc(SCC(=O)Nc4ccc(Cl)cc4)n3C)s2)no1`, the “hERG current change (%, negative = inhibition) at 10uM” value is 2.4%.

In the case of `CNc1ncnc2sc(-c3ccccc3)cc12`, the “hERG current change (%, negative = inhibition) at 10uM” value is -1.51%.

In the case of `CCc1cccc2c(C(=O)C(F)(F)F)cn(CC(=O)NCC3CCCO3)c12` (stereo not shown), the “hERG current change (%, negative = inhibition) at 10uM” value came to 19.3%.

For `CC(C)CNS(=O)(=O)c1ccc(NC(=O)Cn2nc(-c3ccc(F)cc3)ccc2=O)cc1`, the “hERG current change (%, negative = inhibition) at 10uM” value is -3.17%.

Turning to `COc1ccccc1/C=N/n1c(C)nnc1-n1nc(C)cc1C`, the “hERG current change (%, negative = inhibition) at 10uM” value was 0.517%.

Consider `CCCCCCSc1ncc(C#N)c(N)n1`, for which the “hERG current change (%, negative = inhibition) at 10uM” value was -4.45%.

As to `CC(=O)N1N=C(c2ccccc2O)CC1c1cccs1` (stereo not shown), the “hERG current change (%, negative = inhibition) at 10uM” value is recorded as -6.13%.

As for `Cc1c(C(=O)N2CCOCC2)sc2ncnc(N3CCc4ccccc4C3)c12`, the “hERG current change (%, negative = inhibition) at 10uM” value was -38.8%.

For `CCCCOc1ccc(C(=O)NCC(=O)N(C)CC(=O)Nc2ccc(N3CCOCC3)cc2)cc1`, the “hERG current change (%, negative = inhibition) at 10uM” value is recorded as -27.4%.

In the case of `CCOc1ccc(-n2c(-c3ccccc3)c[n+]3c2CCC3)cc1.[Br-]`, the “hERG current change (%, negative = inhibition) at 10uM” value is -54%.

On to `O=C(Nc1cccc(NC(=O)c2ccc(Cl)cc2Cl)c1)c1cccnc1`, for which the “hERG current change (%, negative = inhibition) at 10uM” value was found to be 5.77%.

Take `CC(C)OCCCNC(=S)Nc1ccc2nc3n(c(=O)c2c1)CCCCC3`: the “hERG current change (%, negative = inhibition) at 10uM” value is -13.9%.

On to `CSc1ncc(-c2ccccc2)cn1`, for which the “hERG current change (%, negative = inhibition) at 10uM” value is -11.2%.

Consider `COc1cc(-c2nnc(SCC#CCO)o2)cc(OC)c1OC`, for which the “hERG current change (%, negative = inhibition) at 10uM” value is -11.8%.

Consider `COc1cccc2cc(C(=O)N3CCCCCCC3)c(=O)oc12`, for which the “hERG current change (%, negative = inhibition) at 10uM” value amounted to 9.34%.

As for `COc1ccccc1N(C)S(=O)(=O)c1ccc(C(=O)NC2=NCCS2)cc1`, the “hERG current change (%, negative = inhibition) at 10uM” value is -11.4%.

For the compound `O=C(O)CC1S/C(=N\N=C/c2ccccc2)N(c2ccc(O)cc2)C1=O` (stereo not shown), the “hERG current change (%, negative = inhibition) at 10uM” value came out at 13.4%.

On to `O=C(CCC(=O)NNC(=O)Nc1ccc(Cl)cc1)NCc1ccccc1`, for which the “hERG current change (%, negative = inhibition) at 10uM” value came to 21.6%.

Take `Cc1ccc(N(Cc2ccc(C(=O)NCC3CCCO3)cc2)S(C)(=O)=O)cc1C` (stereo not shown): the “hERG current change (%, negative = inhibition) at 10uM” value is -1.05%.

The values are drawn from publication PMC4336329 (PLoS ONE, 2015).
